# In all, about 81,000 sequences were measured (“one-hybrid fitness for binding NBS DNA”: median about -0.1, highest 2% from about 0.36 on). The list shows a part of the results.
# B1: Caulobacter ParB omega fusion; a variant is named by its letters at X, in order, B8GW30 (parent)
# chain: MESVVVGEPGMSEGRRGLGRGLSALLGEVDAAPAQAPGEQLGGSREAPIEILQRNPDQPRRTFREEDLEDLSNSIREKGVLQPILVRPSPDTAGEYQIVAGERAWRAAQRAGLKTVPIMVRELDDLAVLEIGIIENVQRADLNVLEEALSYKVLMEKFERTQENIAQTIGKSXSHVANXMRLLXLPDEVQSYLVSGELTAXHARAIAAAADPVALAKQIIEGGLSVRETEALARKAPNLSAGKSKGGRPPRVKDTDTQALESDLSSVLGLDVSIDHRGSTGTLTITYATLEQLDDLCNRLTRGI
# Variants of: B1
# Assay: one-hybrid fitness for binding NBS DNA (the Noc-binding site; scaled: cognate 1, non-cognate 0); higher = stronger binding
# Conditions: with NBS DNA site
# Procedure, shortened: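 Values were rescaled so that cognate is 1 and non-cognate is 0. Each is a fitness, the log change in a variant's read ratio to wild type from Illumina reads of plasmids before and after selection, with three replicate libraries pooled and variants under 10 reads dropped. Selection of the Caulobacter ParB libraries, four specificity codons randomised, used E. coli USO with a HIS3 reporter, site 19 bp from the promoter, on M9-minus-histidine with 0.1 mM IPTG and 5 mM 3-AT for 48 hours at 37°C.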
row,Variant,one-hybrid fitness for binding NBS DNA
1,STYG,≤ 0.2
2,CRRH,≤ 0.2
3,TCPK,≤ 0.2
4,IWDS,≤ 0.2
5,HRVA,≤ 0.2
6,AGYL,≤ 0.2
7,HVPD,≤ 0.2
8,VHLW,≤ 0.2
9,ADRT,≤ 0.2
10,LYRA,≤ 0.2
11,DYHG,≤ 0.2
12,IKVS,≤ 0.2
13,KRGR,0.557
14,HTMC,≤ 0.2
15,HYKE,≤ 0.2
16,DSNC,≤ 0.2
17,IGIL,≤ 0.2
18,QSTI,≤ 0.2
19,VFKV,≤ 0.2
20,TMPL,≤ 0.2
21,IYKV,≤ 0.2
22,KTRA,≤ 0.2
23,GLAT,≤ 0.2
24,HQPQ,≤ 0.2

row,Variant,one-hybrid fitness for binding NBS DNA
1,RKRL,≤ 0.2
2,RFAW,≤ 0.2
3,PVFT,≤ 0.2
4,AFRY,≤ 0.2
5,SVWP,≤ 0.2
6,RSVR,0.293
7,PMTN,≤ 0.2
8,SDGT,≤ 0.2
9,FLES,≤ 0.2
10,YINC,≤ 0.2
11,NHVS,≤ 0.2
12,QPTW,≤ 0.2
13,NRNR,≤ 0.2
14,PLLI,≤ 0.2
15,MIVS,≤ 0.2
16,ATDT,≤ 0.2
17,PRND,≤ 0.2
18,TRQP,≤ 0.2
19,YIVY,≤ 0.2
20,PCAL,≤ 0.2
21,QLAG,≤ 0.2
22,PQVP,≤ 0.2
23,CREG,≤ 0.2
24,RDTA,≤ 0.2

row,Variant,one-hybrid fitness for binding NBS DNA
1,HRCR,≤ 0.2
2,QRSK,0.396
3,RFPW,≤ 0.2
4,RICV,≤ 0.2
5,GMVM,≤ 0.2
6,AKGG,≤ 0.2
7,IPGC,≤ 0.2
8,NQLS,≤ 0.2
9,LKRM,≤ 0.2
10,KPLI,≤ 0.2
11,NTPH,≤ 0.2
12,TKRA,≤ 0.2
13,VDIA,≤ 0.2
14,DNSS,≤ 0.2
15,TVRW,≤ 0.2
16,HKDS,≤ 0.2
17,VIPV,≤ 0.2
18,AQDK,≤ 0.2
19,MWHR,≤ 0.2
20,KSNG,≤ 0.2
21,NPLW,≤ 0.2
22,SDLV,≤ 0.2
23,EQEG,≤ 0.2
24,YDLA,≤ 0.2

row,Variant,one-hybrid fitness for binding NBS DNA
1,WLYR,≤ 0.2
2,AYYR,≤ 0.2
3,PVHM,≤ 0.2
4,PDMV,≤ 0.2
5,QFER,0.215
6,LYTA,≤ 0.2
7,PQIC,≤ 0.2
8,CPTM,≤ 0.2
9,EART,≤ 0.2
10,ARKS,≤ 0.2
11,HIAN,≤ 0.2
12,SYHC,≤ 0.2
13,ATRD,≤ 0.2
14,LTPW,≤ 0.2
15,CFSV,≤ 0.2
16,NETE,≤ 0.2
17,TQRT,≤ 0.2
18,KCKY,≤ 0.2
19,HFSR,≤ 0.2
20,RWYF,≤ 0.2
21,HDAF,≤ 0.2
22,LRKS,0.275
23,ADTA,≤ 0.2
24,HRSD,≤ 0.2

row,Variant,one-hybrid fitness for binding NBS DNA
1,MRFK,≤ 0.2
2,QCEG,≤ 0.2
3,DSWR,≤ 0.2
4,DYSP,≤ 0.2
5,HSQI,≤ 0.2
6,WHAG,≤ 0.2
7,LGQT,≤ 0.2
8,SNSL,≤ 0.2
9,LTMM,≤ 0.2
10,PFII,≤ 0.2
11,DVNV,≤ 0.2
12,VSLE,≤ 0.2
13,CKHP,≤ 0.2
14,LSRF,≤ 0.2
15,GKAF,≤ 0.2
16,RAKN,≤ 0.2
17,CITG,≤ 0.2
18,KFTM,≤ 0.2
19,PRKF,≤ 0.2
20,VSNL,≤ 0.2
21,KRDT,0.421
22,QCTL,≤ 0.2
23,KVHR,≤ 0.2
24,LNIR,≤ 0.2

row,Variant,one-hybrid fitness for binding NBS DNA
1,QLWT,0.308
2,NAVF,≤ 0.2
3,SQLN,≤ 0.2
4,DMRG,≤ 0.2
5,LTWS,≤ 0.2
6,MHYH,≤ 0.2
7,STPS,≤ 0.2
8,PRKY,≤ 0.2
9,QIAM,≤ 0.2
10,LSMV,≤ 0.2
11,FPYI,≤ 0.2
12,QWGR,0.249
13,VINS,≤ 0.2
14,VADS,≤ 0.2
15,EAEP,≤ 0.2
16,LRDM,≤ 0.2
17,TSEN,≤ 0.2
18,DVMA,≤ 0.2
19,HEPG,≤ 0.2
20,VCVG,≤ 0.2
21,NLIA,≤ 0.2
22,SNSS,≤ 0.2
23,HSIL,≤ 0.2
24,ESLF,≤ 0.2

row,Variant,one-hybrid fitness for binding NBS DNA
1,QSQI,≤ 0.2
2,VVLR,≤ 0.2
3,RWLM,≤ 0.2
4,TSRE,≤ 0.2
5,VQPS,≤ 0.2
6,HEHN,≤ 0.2
7,VRRH,0.22
8,KPVQ,0.284
9,LVVH,≤ 0.2
10,PHIG,≤ 0.2
11,DPLT,≤ 0.2
12,VAAN,≤ 0.2
13,RTPE,≤ 0.2
14,SGIC,≤ 0.2
15,SATF,≤ 0.2
16,TTPN,≤ 0.2
17,PWGG,≤ 0.2
18,CNYC,≤ 0.2
19,VPHC,≤ 0.2
20,AEAG,≤ 0.2
21,QKDH,0.521
22,PIAG,≤ 0.2
23,TQCR,≤ 0.2
24,SYFS,≤ 0.2

row,Variant,one-hybrid fitness for binding NBS DNA
1,DGSY,≤ 0.2
2,LGRA,≤ 0.2
3,LVHA,≤ 0.2
4,HPTF,≤ 0.2
5,SWPW,≤ 0.2
6,DGRS,≤ 0.2
7,HGKR,≤ 0.2
8,CNFD,≤ 0.2
9,PQQA,≤ 0.2
10,DQRT,≤ 0.2
11,MSQR,≤ 0.2
12,MHSG,≤ 0.2
13,LNNM,≤ 0.2
14,IYQS,≤ 0.2
15,SCSA,≤ 0.2
16,FAHR,≤ 0.2
17,KEGS,≤ 0.2
18,QQFS,0.284
19,KIYN,≤ 0.2
20,GNQH,≤ 0.2
21,TVKC,≤ 0.2
22,EGHG,≤ 0.2
23,FTCG,≤ 0.2
24,QLPE,≤ 0.2

row,Variant,one-hybrid fitness for binding NBS DNA
1,QGFF,≤ 0.2
2,TLPQ,≤ 0.2
3,TMLY,≤ 0.2
4,ATWR,≤ 0.2
5,PCKC,≤ 0.2
6,PHAV,≤ 0.2
7,HIRY,≤ 0.2
8,TRHS,≤ 0.2
9,RACS,0.34
10,LHNR,≤ 0.2
11,CKFF,≤ 0.2
12,GAMN,≤ 0.2
13,GVPD,≤ 0.2
14,RIHH,≤ 0.2
15,RHKL,≤ 0.2
16,NYES,≤ 0.2
17,GSET,≤ 0.2
18,YRSL,≤ 0.2
19,TSFK,≤ 0.2
20,HATG,≤ 0.2
21,FMSK,≤ 0.2
22,CRGA,≤ 0.2
23,IRPN,≤ 0.2
24,PDLT,≤ 0.2

row,Variant,one-hybrid fitness for binding NBS DNA
1,ELVL,≤ 0.2
2,GKPI,≤ 0.2
3,PWHI,≤ 0.2
4,FLFR,≤ 0.2
5,TVML,≤ 0.2
6,LLES,≤ 0.2
7,RFVY,≤ 0.2
8,AMAC,≤ 0.2
9,MSMC,≤ 0.2
10,KQCC,≤ 0.2
11,VYWM,≤ 0.2
12,ADGC,≤ 0.2
13,YVGT,≤ 0.2
14,KHGV,≤ 0.2
15,EAPG,≤ 0.2
16,HVAA,≤ 0.2
17,RKVH,0.211
18,PLQY,≤ 0.2
19,QKLF,≤ 0.2
20,RRMY,0.338
21,MQIC,≤ 0.2
22,EPYD,≤ 0.2
23,LLLI,≤ 0.2
24,HTKT,≤ 0.2

row,Variant,one-hybrid fitness for binding NBS DNA
1,QTQK,0.216
2,PPDS,≤ 0.2
3,CRAC,≤ 0.2
4,KSSW,≤ 0.2
5,AIVW,≤ 0.2
6,SFPK,≤ 0.2
7,DAGD,≤ 0.2
8,PAWQ,≤ 0.2
9,EGRA,≤ 0.2
10,RWEG,≤ 0.2
11,REQV,≤ 0.2
12,SMHS,≤ 0.2
13,KYIF,≤ 0.2
14,IQNW,≤ 0.2
15,LKVF,≤ 0.2
16,HAIR,≤ 0.2
17,CCNT,≤ 0.2
18,RMRD,≤ 0.2
19,QAWT,0.297
20,DSRM,≤ 0.2
21,SDHH,≤ 0.2
22,GGVT,≤ 0.2
23,FIIR,≤ 0.2
24,VPAW,≤ 0.2

row,Variant,one-hybrid fitness for binding NBS DNA
1,SNQT,≤ 0.2
2,NDPG,≤ 0.2
3,HICA,≤ 0.2
4,LPDM,≤ 0.2
5,TVHT,≤ 0.2
6,YYSE,≤ 0.2
7,CHTP,≤ 0.2
8,WPMC,≤ 0.2
9,SGDY,≤ 0.2
10,WDAT,≤ 0.2
11,LTHT,≤ 0.2
12,LCAL,≤ 0.2
13,PNNK,≤ 0.2
14,EQKT,≤ 0.2
15,VVYY,≤ 0.2
16,ADLI,≤ 0.2
17,SIPC,≤ 0.2
18,QMNM,≤ 0.2
19,PAFY,≤ 0.2
20,AHGC,≤ 0.2
21,NNQS,≤ 0.2
22,GYRR,≤ 0.2
23,LNRT,≤ 0.2
24,WPCR,≤ 0.2

row,Variant,one-hybrid fitness for binding NBS DNA
1,NLQT,≤ 0.2
2,RRAE,≤ 0.2
3,RLRG,≤ 0.2
4,QDNR,0.203
5,ITYL,≤ 0.2
6,SPRP,≤ 0.2
7,LEAA,≤ 0.2
8,YDSC,≤ 0.2
9,RFRV,≤ 0.2
10,FACW,≤ 0.2
11,MTGR,≤ 0.2
12,CLNT,≤ 0.2
13,RPIL,≤ 0.2
14,NGPL,≤ 0.2
15,RDRY,≤ 0.2
16,AKPM,≤ 0.2
17,IATK,≤ 0.2
18,QIRW,≤ 0.2

# — a collection of fitness landscapes (doi:10.1016/j.celrep.2020.107928)
